Reference: the supplement of paper PMC11880418
Counter-ions that a name gives are not always drawn. The list shows a part of the results. The data scatter; read single values as rough.

Legend:
Assay in all cases: ALDHbr (CSC) cell proportion score relative to DMSO vehicle (ratio to DMSO); breast (SUM159) / gastric (MKN45) / pancreatic (PANC1) / colon cancer lines; ALDHbr cells have high ALDH activity and are rich in cancer stem cells (CSC); higher = more CSC (ALDHbr) cells remaining
Settings in all cases: 10 µM; 72 h
MKN45 = system: MKN45
PANC1 = system: PANC1
SUM159 = system: SUM159
T84 = system: T84
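Further: High-content imaging of ALDEFLUOR-stained cells with Hoechst-labelled nuclei in 384-well plates, triplicate wells, scored as Z-score against 0.1% DMSO vehicle, negative meaning fewer ALDHbr cells.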

Work on `CC(NCCc1ccc(O)cc1)C(O)c1ccc(O)cc1` (configuration not stated) [Ritodrine hydrochloride] yielded an ALDHbr (MKN45) of 0.924, an ALDHbr (PANC1) of 0.791 and an ALDHbr (SUM159) of 2.37. For the same compound, the ALDHbr (T84) was 0.915.
Work on `CN(C)CCN1C(=O)c2ccccc2N(C)c2ccccc21` [Dibenzepine hydrochloride] yielded an ALDHbr (MKN45) of 0.99, an ALDHbr (PANC1) of 0.778 and an ALDHbr (SUM159) of 1.13. For the same compound, the ALDHbr (T84) was 1.05.
Work on `C[N+]1(CCCCC[N+]2(C)CCCC2)CCCC1` [Pentolinium bitartrate] yielded an ALDHbr (MKN45) of 1.01, an ALDHbr (PANC1) of 0.903 and an ALDHbr (SUM159) of 0.893. For the same compound, the ALDHbr (T84) was 1.
`C=CCOC(Cn1ccnc1)c1ccc(Cl)cc1Cl` (configuration not stated) [Enilconazole] showed an ALDHbr (MKN45) of 1.14, an ALDHbr (PANC1) of 1.32 and an ALDHbr (SUM159) of 1.03. The ALDHbr (T84) was 0.829.
`COC(=O)C1=C(C)NC(C)=C(C(=O)OC)C1c1ccccc1[N+](=O)[O-]` [Nifedipine] was tested, and the ALDHbr (MKN45) was 0.855, the ALDHbr (PANC1) was 1.07 and the ALDHbr (SUM159) was 0.917. For the same compound, the ALDHbr (T84) was 0.871.
`OCCN1CCN(CCCN2c3ccccc3C=Cc3ccccc32)CC1` [Opipramol dihydrochloride] showed an ALDHbr (MKN45) of 0.751, an ALDHbr (PANC1) of 0.923 and an ALDHbr (SUM159) of 0.848. The ALDHbr (T84) was 0.762.
`CCOC(=O)OC(C)OC1=C(C(=O)Nc2ccccn2)N(C)S(=O)(=O)c2ccccc21` (configuration not stated) [Ampiroxicam] gave an ALDHbr (MKN45) of 1.1, an ALDHbr (PANC1) of 0.92 and an ALDHbr (SUM159) of 0.87. For the same compound, the ALDHbr (T84) was 0.884.
With `COC(=O)[C@H](c1ccccc1Cl)N1CCc2sccc2C1` [Clopidogrel] the ALDHbr (MKN45) was 0.759, the ALDHbr (PANC1) was 0.991 and the ALDHbr (SUM159) was 0.888. It also gave an ALDHbr (T84) of 0.89.
`CCN(CCO)CCCC(C)Nc1ccnc2cc(Cl)ccc12` (configuration not stated) [Hydroxychloroquine sulfate] was tested, and the ALDHbr (MKN45) was 1, the ALDHbr (PANC1) was 0.968 and the ALDHbr (SUM159) was 0.731. It also gave an ALDHbr (T84) of 0.979.
With `CC(=O)OCC(CCn1cnc2cnc(N)nc21)COC(C)=O` [Famciclovir] the ALDHbr (MKN45) was 1.29, the ALDHbr (PANC1) was 0.987 and the ALDHbr (SUM159) was 0.844. For the same compound, the ALDHbr (T84) was 1.04.
In the case of `CC(=O)O[C@]1(C(C)=O)CC[C@H]2[C@@H]3C=C(C)C4=CC(=O)CC[C@]4(C)[C@H]3CC[C@@]21C` [Megestrol acetate], the ALDHbr (MKN45) is reported as 0.868, the ALDHbr (PANC1) is reported as 0.739 and the ALDHbr (SUM159) is reported as 0.831. For the same compound, the ALDHbr (T84) was 1.09.
`Nc1ccn([C@@H]2CS[C@H](CO)O2)c(=O)n1` [Lamivudine] showed an ALDHbr (MKN45) of 1.07, an ALDHbr (PANC1) of 0.859 and an ALDHbr (SUM159) of 1.12. For the same compound, the ALDHbr (T84) was 1.05.
`COc1ccccc1OCC(O)COC(N)=O` (configuration not stated) [Methocarbamol] was tested, and the ALDHbr (MKN45) was 1.07, the ALDHbr (PANC1) was 0.846 and the ALDHbr (SUM159) was 1.1. It also gave an ALDHbr (T84) of 0.826.
`Cc1cc2c(cc1S(N)(=O)=O)S(=O)(=O)CCC2` [Meticrane] gave an ALDHbr (MKN45) of 0.856, an ALDHbr (PANC1) of 0.706 and an ALDHbr (SUM159) of 0.844. For the same compound, the ALDHbr (T84) was 0.918.
`NC1CCN(c2nc3c(cc2F)c(=O)c(C(=O)O)cn3-c2ccc(F)cc2F)C1` (configuration not stated) [Tosufloxacin hydrochloride] showed an ALDHbr (MKN45) of 1.52, an ALDHbr (PANC1) of 0.797 and an ALDHbr (SUM159) of 0.913. For the same compound, the ALDHbr (T84) was 1.03.
In the case of `CC(=O)OCC(=O)[C@@]12OC3(CCCC3)O[C@@H]1C[C@H]1[C@@H]3CCC4=CC(=O)C=C[C@]4(C)[C@@]3(F)[C@@H](O)C[C@@]12C` [Amcinonide], the ALDHbr (MKN45) is reported as 1.16, the ALDHbr (PANC1) is reported as 0.627 and the ALDHbr (SUM159) is reported as 0.839. It also gave an ALDHbr (T84) of 0.89.
Work on `CC(C(O)c1ccc(O)cc1)N1CCC(Cc2ccccc2)CC1` (configuration not stated) [Ifenprodil tartrate] yielded an ALDHbr (MKN45) of 1.18, an ALDHbr (PANC1) of 1.16 and an ALDHbr (SUM159) of 1.25. It also gave an ALDHbr (T84) of 0.869.
Work on `CCCOc1cc(N)ccc1C(=O)OCCN(CC)CC` [Propoxycaine hydrochloride] yielded an ALDHbr (MKN45) of 1.28, an ALDHbr (PANC1) of 1.04 and an ALDHbr (SUM159) of 0.987. For the same compound, the ALDHbr (T84) was 1.05.
Compound `CCC(=O)O[C@@H](O[P@](=O)(CCCCc1ccccc1)CC(=O)N1C[C@H](C2CCCCC2)C[C@H]1C(=O)O)C(C)C` [Fosinopril] has an ALDHbr (MKN45) of 0.558, an ALDHbr (PANC1) of 0.807 and an ALDHbr (SUM159) of 0.794. It also gave an ALDHbr (T84) of 0.895.
`CCn1nc(C(=O)O)c(=O)c2cc3c(cc21)OCO3` [Cinoxacin] gave an ALDHbr (MKN45) of 0.876, an ALDHbr (PANC1) of 0.798 and an ALDHbr (SUM159) of 1.04. It also gave an ALDHbr (T84) of 0.937.
Work on `CCOC1O[C@H]([C@@H](COCc2ccccc2)OCc2ccccc2)[C@H](OCc2ccccc2)[C@H]1O` (some centres not stated) [Tribenoside] yielded an ALDHbr (MKN45) of 0.451, an ALDHbr (PANC1) of 0.906 and an ALDHbr (SUM159) of 0.787. The ALDHbr (T84) was 0.727.
Compound `Cc1nc2ccccn2c(=O)c1CCN1CCC(C(=O)c2ccc(F)cc2)CC1` [Pirenperone] has an ALDHbr (MKN45) of 1.2, an ALDHbr (PANC1) of 0.788 and an ALDHbr (SUM159) of 0.93. The ALDHbr (T84) was 0.98.
Compound `O=C(O)c1cccnc1Nc1cccc(C(F)(F)F)c1` [Niflumic acid] has an ALDHbr (MKN45) of 1, an ALDHbr (PANC1) of 0.848 and an ALDHbr (SUM159) of 0.78. It also gave an ALDHbr (T84) of 0.895.
